# About 14,000 (4.5%) of roughly 310,000 compounds showed an effect of 50% or more. Effects have a minus sign here. Some of the results follow.
# Molecular target: human ether-à-go-go-related gene (hERG) potassium channel (human, UniProt Q12809)
# Assay: primary screen, population patch clamp on CHO cells stably expressing hERG
# 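Further: peak tail current of the secondary pulse compared with the same well before compound.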
# Sequence of human ether-à-go-go-related gene (hERG) potassium channel (Q12809 whole entry, looked up): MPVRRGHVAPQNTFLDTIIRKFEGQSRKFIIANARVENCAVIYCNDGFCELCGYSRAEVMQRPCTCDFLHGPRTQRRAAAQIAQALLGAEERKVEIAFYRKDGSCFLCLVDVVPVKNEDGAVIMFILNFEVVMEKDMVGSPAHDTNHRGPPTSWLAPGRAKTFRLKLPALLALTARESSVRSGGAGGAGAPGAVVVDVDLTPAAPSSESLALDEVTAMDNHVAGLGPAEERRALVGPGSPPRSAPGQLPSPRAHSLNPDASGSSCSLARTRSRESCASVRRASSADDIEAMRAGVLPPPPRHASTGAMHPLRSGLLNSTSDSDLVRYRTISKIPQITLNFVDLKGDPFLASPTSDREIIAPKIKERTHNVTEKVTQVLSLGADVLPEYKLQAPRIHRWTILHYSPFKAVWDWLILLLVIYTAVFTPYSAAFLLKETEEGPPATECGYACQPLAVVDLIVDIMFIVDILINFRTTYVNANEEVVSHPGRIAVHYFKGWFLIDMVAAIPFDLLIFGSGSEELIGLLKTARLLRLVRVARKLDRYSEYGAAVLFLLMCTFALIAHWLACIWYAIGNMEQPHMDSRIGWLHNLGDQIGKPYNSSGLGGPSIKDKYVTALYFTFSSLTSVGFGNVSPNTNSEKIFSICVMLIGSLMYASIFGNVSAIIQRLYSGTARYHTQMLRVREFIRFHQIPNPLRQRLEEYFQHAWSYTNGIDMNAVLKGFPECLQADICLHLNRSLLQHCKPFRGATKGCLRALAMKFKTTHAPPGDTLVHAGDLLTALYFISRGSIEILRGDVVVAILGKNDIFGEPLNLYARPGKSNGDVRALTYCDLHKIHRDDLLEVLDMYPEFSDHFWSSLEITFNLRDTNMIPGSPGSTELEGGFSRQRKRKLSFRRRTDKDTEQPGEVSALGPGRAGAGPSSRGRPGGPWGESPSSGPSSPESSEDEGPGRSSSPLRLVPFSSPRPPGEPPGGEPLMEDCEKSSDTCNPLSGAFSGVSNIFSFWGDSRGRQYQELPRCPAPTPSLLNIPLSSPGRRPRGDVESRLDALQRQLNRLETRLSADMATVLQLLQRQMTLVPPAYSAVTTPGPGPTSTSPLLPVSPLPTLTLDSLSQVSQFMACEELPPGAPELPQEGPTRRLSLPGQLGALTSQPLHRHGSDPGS
row,SMILES,"hERG current change (%, negative = inhibition) at 10uM"
1,C#CCN1C(=O)S/C(=C/c2cc(C)n(CC)c2C)C1=O,0.0533%
2,C=CCNC(=O)C12CCC(C)(C(=O)[C@H]1Br)C2(C)C (stereo partly drawn),-1.61%
3,Cc1cc(NC(=O)NC2CC(=O)N(c3ccc4c(c3)OCCO4)C2)no1 (stereo not drawn),0.346%
4,Cc1ccc(CCNS(=O)(=O)c2ccc3c(c2)N(C)CCO3)cc1,6.53%
5,CCCOc1ccccc1Cn1c(=O)oc2ccccc21,3.07%
6,COCCSc1nnc(NC(=O)Cc2ccccc2OC)s1,-16.3%
7,CC(C)CNc1nc(Oc2ccc(=O)n(C)n2)nc(N2CCOCC2)n1,7.06%
8,CCOc1c(OC(C)=O)ccc(/C=C2\N=C(SCC)SC2=O)c1[N+](=O)[O-],18.3%
9,CC(C)=CCC(C)(C)/C=N/NC(N)=O,14.4%
10,O=C1Nc2ccccc2C(O)(C(=O)N2CCCCC2)N1c1ccccc1 (stereo not drawn),12.6%
11,Cc1ccc(-n2c(=O)cc(N3CCCCCC3)[nH]c2=O)cc1,7.38%
12,O=c1nc(-c2ccccc2)c2cc(SC(F)F)ccc2[nH]1,-14.8%
13,Cc1cc(C)n(C(N)=NC(=O)c2ccc([N+](=O)[O-])cc2)n1,16%
14,O=C(CSc1nnc(-c2ccc(O)cc2)o1)NNC(=O)c1ccncc1,12.6%
15,O=C(NCC(=O)N(CCN1CCOCC1)C(C(=O)NC1CCCC1)c1cccnc1)c1cccs1 (stereo not drawn),13.1%
16,COc1ccccc1C1CCN(C(=O)c2ccco2)CC1,4.95%
17,CC1CCCCC1NS(=O)(=O)c1ccc(-n2cnnn2)cc1 (stereo not drawn),-14.4%
18,O=C(c1ccc(N2CCNCC2)cc1)c1cccnc1,7.22%
19,CC(=O)N1CCN(CC(=O)c2ccc(Br)cc2)CC1.Cl,-9.46%
20,Cc1cccc(NC(=O)CNC(=O)COc2ccc(-c3ccc(C#N)cc3)cc2)c1C,4.86%

row,SMILES,"hERG current change (%, negative = inhibition) at 10uM"
1,Cc1cc(=O)n2c(C(=O)Nc3ccc(C(=O)OC(C)C)cc3)c(C(=O)Nc3ccccc3)sc2n1,19.9%
2,O=C1CCC([N+](=O)[O-])C(c2ccccc2F)N1 (stereo not drawn),15%
3,CCOc1ccc(C(C(=O)NCC2CCCO2)N(C(=O)c2snc(C(N)=O)c2N)c2ccc(F)cc2)cc1 (stereo not drawn),-18.5%
4,CC(OC(=O)C1CCCO1)C(=O)NC1CCCC1 (stereo not drawn),2.82%
5,CC(=O)c1ccc(OCc2cc(=O)n3ccsc3n2)cc1,-1.4%
6,O=C(c1ccc(S(=O)(=O)N2CCCCCC2)cc1)N1CCN(c2ccccn2)CC1,-22.5%
7,Cc1ccc(C(=O)C[n+]2cccc(C(N)=O)c2)cc1.[Br-],15.3%
8,Cc1cccc(C(=O)NC(=S)N(C)C2CCCCC2)c1,13.6%
9,CCN(Cc1ccccc1)C(=O)Cn1c(C(C)O)nc2ccccc21 (stereo not drawn),-4.22%
10,Cc1ccc(C(=O)NCC(=O)OC(C)C(=O)Nc2ccc(N(C)C)cc2)s1 (stereo not drawn),-5.52%
11,Cc1c(O)nc2sc3ccccc3n2c1=O,10.8%
12,O=C(NC1CCCC1)c1cccc(S(=O)(=O)N2CCCC2)c1,0.679%
13,Cc1ccc(CC(=O)Nc2nccs2)cc1,12.3%
14,C=CCn1c(SCCC)nc(O)cc1=O,4%
15,Clc1ccc(C2=NNC(=NCc3ccc4c(c3)OCO4)SC2)cc1,1.42%
16,COc1ccc(CCNC(=O)CCNS(=O)(=O)c2cc(Br)cnc2N)cc1OC,7.91%
17,Cc1cccc(NC(=S)NCc2cccs2)c1,6.61%
18,Nc1ccc(-c2nc3ccc([N+](=O)[O-])cc3[nH]2)cc1,3.33%
19,CC(Oc1ccc(F)cc1)C(=O)Nc1cc(Cl)ccc1-n1cncn1 (stereo not drawn),-28.1%
20,CN1CCN(c2nc3c(c(=O)[nH]c(=O)n3C)n2Cc2ccccc2F)CC1,11.9%

row,SMILES,"hERG current change (%, negative = inhibition) at 10uM"
1,CC(=O)Nc1ccc(NC(=O)CSc2ccc(-c3sc(C)nc3C)nn2)cc1,1.38%
2,Cc1ccc(NC(=O)CCC(=O)NNC(=S)Nc2ccc(F)cc2)c(C)c1,8.29%
3,O=C(N/N=C/c1ccc2c(c1)OCO2)c1ccc(NC(=O)c2ccccc2Cl)cc1,2.13%
4,CSc1ccccc1NC(=O)c1cc(S(=O)(=O)N(C)C)ccc1N1CCCC1,-54.7%
5,O=C1CSC(c2ccc(F)c(F)c2)N1c1ccccc1F (stereo not drawn),10.8%
6,O=C(O)C(=O)O.c1ccc(OCCCN2CCCC2)cc1,-7.18%
7,CN(CC(=O)Nc1ccc(Cl)cc1)C(=O)Cn1[nH]c(=O)c2ccccc2c1=O,-20.2%
8,CCOc1ccc(NCC(=O)Nc2ccc(C)cc2C)cc1,9.14%
9,O=C(OCC(=O)N1CCN(c2ccccc2)CC1)c1ccc2ccccc2n1,-8.87%
10,O=C(O)/C=C/C(=O)N1CCN(C(=O)/C=C/C(=O)O)CC1,6.37%
11,Cc1ccc(-c2n[nH]c3c2C(c2ccccc2)N(c2ccc(C(=O)O)cc2)C3=O)cc1 (stereo not drawn),-43.5%
12,CCC(=O)Nc1ccc(NC(=O)C23CC4CC(CC(C4)C2)C3)cn1,7.65%
13,Cc1cc(C)c(OCCCn2ccnc2)c(C)c1,5.92%
14,CCN(CC)S(=O)(=O)c1ccc2c(c1)CC(C(=O)N1CCCC1)N2C(C)=O (stereo not drawn),1.51%
15,COc1ccc(N=Nc2ccc(O)c(P(=O)(c3ccccc3)c3ccccc3)c2)cc1,5.99%
16,COc1ccccc1OCCCCN1CCC(C)CC1,-16%
17,CCOC(=O)c1c(NC(=O)Nc2ccc(F)cc2)sc2c1CCN(C)C2,-26%
18,O=C(c1ccncc1)c1nccn1-c1ccccn1,8.51%
19,CCC1CCC(NC2CCCCNC2=O)CC1 (stereo not drawn),2.52%
20,O=C(NCCC1=CCCCC1)C1CCN(Cc2cnn(-c3ccccc3)c2-n2cccc2)CC1,-51.8%

# From article PMC4336329 (PLoS ONE, 2015)
